Measured values published in PMC4336329 (PLoS ONE, 2015).
Among all 310,000 compounds or so, about 14,000 (4.5%) showed an effect of 50% or more. The effect is printed as a negative number. The list shows a part of the results.

Molecular target: human ether-à-go-go-related gene (hERG) potassium channel (human, UniProt Q12809)
Assay: primary screen, population patch clamp on CHO cells stably expressing hERG
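Note: peak tail current of the secondary pulse compared with the same well before compound.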

Sequence of human ether-à-go-go-related gene (hERG) potassium channel (Q12809 whole entry, looked up): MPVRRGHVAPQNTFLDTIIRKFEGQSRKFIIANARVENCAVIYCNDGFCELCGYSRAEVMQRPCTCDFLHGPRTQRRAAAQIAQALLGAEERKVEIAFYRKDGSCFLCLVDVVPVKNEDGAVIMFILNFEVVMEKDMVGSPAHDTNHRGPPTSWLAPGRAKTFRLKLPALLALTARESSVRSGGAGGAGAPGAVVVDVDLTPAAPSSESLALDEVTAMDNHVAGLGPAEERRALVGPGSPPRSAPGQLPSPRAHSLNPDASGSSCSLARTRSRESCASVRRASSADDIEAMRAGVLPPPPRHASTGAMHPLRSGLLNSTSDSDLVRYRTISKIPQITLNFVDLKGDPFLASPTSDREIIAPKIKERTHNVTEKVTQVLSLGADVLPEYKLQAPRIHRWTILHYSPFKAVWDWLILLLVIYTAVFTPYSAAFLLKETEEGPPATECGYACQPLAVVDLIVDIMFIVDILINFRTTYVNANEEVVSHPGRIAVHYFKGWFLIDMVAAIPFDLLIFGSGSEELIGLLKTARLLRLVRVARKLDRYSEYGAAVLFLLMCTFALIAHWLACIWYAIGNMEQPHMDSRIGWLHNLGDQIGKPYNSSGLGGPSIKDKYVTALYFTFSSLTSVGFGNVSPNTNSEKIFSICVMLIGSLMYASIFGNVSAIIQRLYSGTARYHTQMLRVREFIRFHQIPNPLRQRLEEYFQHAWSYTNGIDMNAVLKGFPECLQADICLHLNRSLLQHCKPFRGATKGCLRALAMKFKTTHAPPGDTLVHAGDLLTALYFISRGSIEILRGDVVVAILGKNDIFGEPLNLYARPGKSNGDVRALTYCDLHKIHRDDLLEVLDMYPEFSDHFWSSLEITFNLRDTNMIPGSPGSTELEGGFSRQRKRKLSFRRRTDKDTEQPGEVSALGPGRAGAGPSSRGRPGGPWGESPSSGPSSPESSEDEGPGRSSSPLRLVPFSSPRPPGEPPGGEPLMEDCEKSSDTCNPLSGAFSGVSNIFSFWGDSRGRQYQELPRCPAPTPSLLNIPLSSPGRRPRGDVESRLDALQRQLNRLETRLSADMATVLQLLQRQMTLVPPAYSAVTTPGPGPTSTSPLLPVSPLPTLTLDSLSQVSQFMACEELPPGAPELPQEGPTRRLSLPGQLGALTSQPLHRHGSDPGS

SMILES | hERG current change (%, negative = inhibition) at 10uM [%]
CN1c2ccccc2C(C)(C)C12CC(c1ccc(Cl)c(S(=O)(=O)N3CCCC3)c1)=NO2 (stereo not drawn) | 7.23
O=C(Nc1cccc(S(=O)(=O)N2CCCCC2)c1)C1CC(=O)N(Cc2ccco2)C1 (stereo not drawn) | 7.39
CC(C)(C)OC(=O)NCCCC[C@@H](C(=O)NCCCCCCCCCCC(=O)N1CCN(C(=O)OC(C)(C)C)CC1)n1cc(CCO)nn1 | -1.16
NC(=S)N/N=C/c1c[nH]c2ccc(OCc3ccccc3)cc12 | 6.65
CCOc1ccc(S(=O)(=O)NNC(=O)c2cc3ccccc3o2)cc1 | -20.6
O=C(NNC(=S)Nc1ccc(Cl)cc1Cl)C1CC1 | -24
CC1=C(C(=O)Nc2ccc(C)cc2C)C(c2ccc(C)o2)NC(=O)N1 (stereo not drawn) | 2.35
COc1ccc(CCNC(=O)CC(c2ccccc2)c2cccc(C)c2O)cc1OC (stereo not drawn) | -3.11
CCn1cc(C(=O)NCCCO)c(=O)c2cc(F)c(N3CCN(C)CC3)cc21.Cl | 11
CCN(CCn1cccn1)Cc1nc(Cc2cccc(F)c2)no1 | -7.22
CCOC(=O)c1cc(C#N)c(SC)nc1-c1ccccc1 | -7.3
O=C(CSc1nc2ccccc2s1)Nc1cc(S(=O)(=O)N2CCOCC2)ccc1O | -11.6
Cc1cc(C)cc(NC(=O)Cc2ccc(S(=O)(=O)N3CCCC3)s2)c1 | -18.1
Cc1ccc(C(=O)Nc2cccc(C(=O)NCc3ccccc3)c2)cc1 | 5.21
COCCCn1c(=S)[nH]c2ncccc2c1=O | 4.06
COc1ccc(Br)cc1CN1CCCC(C(=O)N2CCCCC2)C1.O=C(O)C(=O)O (stereo not drawn) | -55.8
CC1(C)Oc2ccc(C(=O)N3CCCCC3)cc2N(CC(=O)NCc2ccccc2)C1=O | -3.99
O=c1cccc2n1CC1CC2CN(Cc2cccc(Cl)c2Cl)C1 (stereo not drawn) | -44.1
Cn1c(C(=O)OCC(=O)NCc2ccco2)cc2sccc21 | -10.1
Cc1c(Cl)cnc(NC(=O)COC(=O)Cc2coc3ccc4ccccc4c23)c1Cl | -7.96
CCc1noc(C)c1C(=O)N1CCOCC1 | 14.4

SMILES | hERG current change (%, negative = inhibition) at 10uM [%]
Cc1cc(C)nc(/N=C(\N)Nc2ccc(OCc3ccccc3)cc2)n1 | -78.2
CCOc1ccc(-c2c(C(=O)N/N=C/c3c[nH]c4ccccc34)nnn2-c2nonc2N)cc1 | 23.8
Cn1cc(C(=O)NCc2cccnc2)c(=O)c2cc(S(=O)(=O)N3CCCCCC3)ccc21 | 14.1
CCOc1ccccc1-c1nn2c(Cc3ccccc3)nnc2s1 | 4.53
CNC(=O)c1csc(Cc2c(Cl)sc3ccc(Cl)cc23)n1 | -2.3
Cc1cccc(C)c1N(CC(=O)N1CCN(C)CC1)S(C)(=O)=O | 16.9
CCOC(=O)C(Cc1ccccc1)c1ccnc2ncnn12 (stereo not drawn) | 3.86
CCOC(=O)N1CCN(C2=C(NS(=O)(=O)c3ccccc3)C(=O)c3ccccc3C2=O)CC1 | -8.45
CCOC(=O)c1sc(NC(=O)CSc2nc(C)cc(C)n2)c(C#N)c1C | 7.09
O=C(Cc1c[nH]c2ccccc12)N/N=C/c1ccccc1O | 0.316
CN(Cc1ccccc1)C(=O)CN1C(=O)NC(C)(c2ccc(Cl)cc2)C1=O (stereo not drawn) | 1.93
O=C(Nc1ccon1)c1cc2ccccc2oc1=O | 1.17
CCOC(=O)N1CCN(C(=O)COC(=O)C2CCN(S(=O)(=O)c3ccc(C)c(C)c3)CC2)CC1 | -62.1
COc1ccc(CNC(=O)CC(C)S(=O)(=O)c2ccc3c(c2)NC(=O)CO3)cc1 (stereo not drawn) | 10.1
O=C(O)/C=C\C(=O)O.OCCN1CCN(CC/C=C2/c3ccccc3CSc3ccccc32)CC1 | -12.2
CCOC(=O)C1=C(C)NC(=S)NC1c1ccc(-c2ccc(Cl)cc2)o1 (stereo not drawn) | 4.06
COc1cc(CN2CCC(CO)(Cc3cccc(C(F)(F)F)c3)CC2)ccc1F | -68.7
COc1ccc(NC(=O)OC(C)C)cc1 | -4.06
Cc1cc(C)nc(SCC(=O)Nc2sc3c(c2C#N)CCC(C)C3)n1 (stereo not drawn) | 14.7
COc1ccccc1NC(=O)Nc1nc(CC(=O)N2CCN(c3ccccc3OC)CC2)cs1 | 10.1
CCCc1cc(C(=O)NNC(=S)NCc2ccccc2)cs1 | 5

SMILES | hERG current change (%, negative = inhibition) at 10uM [%]
Cc1cccc(-c2nn(-c3ccccc3)cc2C(=O)N2CCN(C3CCS(=O)(=O)C3)CC2)c1 (stereo not drawn) | -36.6
CCOc1ccc(CCNC(=O)CCc2c(C)nc3ncnn3c2C)cc1OCC | -14.9
O=C(COC(=O)c1cccc(O)c1)Nc1ccc(N2CCOCC2)cc1 | -3.36
O=C(NCCN1CCN(S(=O)(=O)c2ccc(F)cc2)CC1)C(=O)NCc1ccccc1 | 0.451
CC1Cc2ccccc2N1CC(=O)NC(=O)NCc1ccccc1 (stereo not drawn) | -4.86
COc1ccc(N2CCN(C3CCCN(C(=O)CN4CCCC4=O)C3)CC2)cc1 (stereo not drawn) | 16.2
CCc1ccccc1Nc1nc(N)nc(COC(=O)c2cccn2C)n1 | -21.5
COc1ccc(C2=NN(c3nc(-c4ccc(CNC(C)=O)cc4)cs3)C(c3ccco3)C2)cc1 (stereo not drawn) | 12.2
Cc1nc(SCC(=O)N2CCc3ccccc3C2)c2c(C)c(C)sc2n1 | -13.1
Cc1cc2c(=O)n(C)c(SCC(=O)Nc3cccc(F)c3)nc2s1 | 16.5
CN1CCN(c2nc3c(c(=O)[nH]c(=O)n3C)n2Cc2cccc(Br)c2)CC1 | -53.5
O=C(O)C1CCCCC1C(=O)Nc1nc(-c2ccc(Cl)s2)cs1 (stereo not drawn) | 13.7
COC(=O)c1cc([N+](=O)[O-])c(-n2ccnc2)c([N+](=O)[O-])c1 | 16
O=C(COC(=O)CNC(=O)c1ccc([N+](=O)[O-])o1)Nc1ncc(C(F)(F)F)cc1Cl | -58.3
Cc1cccc2cc(CN(Cc3ccco3)C(=O)Nc3cccc(C#N)c3)c(Cl)nc12 | 18.4
O=C(Nc1ccc(F)c(F)c1)c1ccc2c(c1)OCO2 | -15.5
CCOC(=O)CCCCCN1C(=O)c2cccc3cccc(c23)C1=O | 16.7
COc1cccc(-c2nc(CS(=O)(=O)CC(=O)Nc3ccc(F)cc3F)c(C)o2)c1 | 17.7
COc1ccc(C(=O)Nn2c(SCC(=O)NCC3CCCO3)nc3ccccc3c2=O)cc1 (stereo not drawn) | 2.75
FC(F)(F)c1nnc(-c2ccccc2)nc1N1CCOCC1 | -11.1
CCn1c(=O)c(C(=O)NNS(=O)(=O)c2ccc(C)cc2)c(O)c2ccccc21 | -17.8

SMILES | hERG current change (%, negative = inhibition) at 10uM [%]
Cc1nn(-c2ccccc2)c2c1C1(C(=O)Nc3ccccc31)N1C(=N2)Sc2ccccc21 (stereo not drawn) | 0.952
Cc1cc(NC(=O)CSc2ccc3nnc(CCNS(=O)(=O)c4ccccc4)n3n2)no1 | 15.6
CCS(=O)(=O)NCc1csc(-c2ccccc2)n1 | 18
CCOc1ccc(NC(=S)NC(=O)/C=C/c2ccc(C)cc2)c([N+](=O)[O-])c1 | -2.67
CCCC[N+](CCCC)(CCCC)CCCC.Nc1ncnc2c1ncn2[C@@H]1O[C@H](COS(=O)(=O)[O-])[C@@H](O)[C@H]1O | 6.69
NC(=S)N/N=C/c1ccccc1 | 20.2
Cc1ccc(CC(=O)NCc2cccnc2)cc1 | 34.3
Cc1ccc(-n2c(SCC(=O)NC3CCS(=O)(=O)C3)nc3ccccc3c2=O)cc1 (stereo not drawn) | 12.8
Cc1nnc(C)n1/N=C/c1cccnc1 | 14.8
Cc1ccc(C(=O)Nc2cnc3ccccc3c2)cc1 | -1.69
O=C(CCc1ccccc1)Nc1ccnn1C1CCN(C/C=C/c2ccccc2)CC1 | -72.1
C=CCn1c(CCNC(=O)c2ccccc2F)nnc1SCC(=O)Nc1ccc(OC)cc1 | 3.94
CCOc1c(C)cc2[nH]c(CCC(=O)O)nc2c1C.Cl | -0.00982
CS(=O)(=O)N1CCc2cc(-c3csc(NC(=O)Cc4cccs4)n3)ccc21 | -17
C/C(Cl)=C\Cn1c(NCCc2ccccc2)nc2c1c(=O)n(C)c(=O)n2C | -9.3
CCc1ccc(NC(=O)[C@H](C)NC(=O)C2CCN(C(=O)[C@@H](N)C(C)C)CC2)cc1.Cl | 4.85
O=C(CSc1ccc(C(F)(F)F)cc1[N+](=O)[O-])NCCOc1ccccc1 | 3.64
O=C(CSc1nc2cc([N+](=O)[O-])ccc2n1-c1ccccc1)NCc1ccc2c(c1)OCO2 | 2.65
O=C(Cn1c(=O)[nH]c2ccccc2c1=O)N1CCN(Cc2ccc3c(c2)OCO3)CC1 | 0.172
CC(C)(C)c1ccc(C2CC2C(=O)N/N=C\c2ccc[nH]2)cc1 (stereo not drawn) | -2.94
CC(C)CCNC(=O)Cn1c2c(c(-c3ccccc3Cl)cc1=O)CCC2 | -30.8
